Several values for one entry are separate records, joined by “and”; a condition that tells them apart may be missing. Equal values may be shown once. Screen size: about 420,000 compounds; about 50,000 (12%) were called active. Inconclusive results, whose numbers are uncertain, are shown with a selection of clear calls. The call rests on the fitted dose curve; in most records, active means well fitted inhibition curve with a large enough effect; inconclusive means small, poorly fitted or top-dose-only effect; inactive means flat fitted curve, though single readings scatter. No potency is given beside an inconclusive call; the fits are too rough.
Test: qHTS for Inhibitors of human tyrosyl-DNA phosphodiesterase 1 (TDP1): qHTS in cells in presence of CPT; further: nearly all actives have a fitted effect of over 55% in size
Conditions: chicken DT40 Tdp1-/-;hTDP1 cells + 20 nM CPT, ATP luminescence, 48 h; activity change, negative = growth inhibition: at 46.2 µM (top of the series) unless noted
In short: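 Cell growth measured by CellTiter-Glo luminescence after a minimum 48 h, 37 C compound exposure with 20 nM CPT in Tdp1-knockout DT40 cells stably expressing hTDP1, seeded 400/well; qHTS titration format.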
On the % scale 0 is the no-effect control and ±100 the full control effect; potency means the concentration at half of the fitted maximal effect; tags describe the fitted curve by direction and shape.

Structure (SMILES) | Potency | activity change, negative = growth inhibition
COc1ccc(N(CC(=O)NC(C)c2ccccc2)S(=O)(=O)c2c(C)noc2C)cc1 (stereo not drawn) | inactive | –
Cc1cc(C)c(NC(=O)CS(=O)CC(=O)N2CCN(c3cccc(C)c3C)CC2)c(C)c1 (stereo not drawn) | inconclusive [inhibitor, single point] | –
CC(C)N=c1c([N+](=O)[O-])nn(C)n1O | – | inactive: -4.44%
CCOC(=O)c1c(C)c(-c2ccccc2)n(CC(=O)Nc2cc(OC)cc(OC)c2)c1C | inconclusive [inhibitor, partial curve] | –
COC(=O)c1ccc(CN2C(=O)C3CCCCC3C2=O)o1 (stereo not drawn) | – | inactive: 0.02%
COc1cc(C2NC(=O)NC(C)=C2C(=O)Nc2cc(C)cc(C)c2)ccc1O (stereo not drawn) | – | inactive: -3.68%
O=S1(=O)C[C@H](N2CCN(CCO)CC2)[C@@H](COCc2ccccc2)N1 | – | inactive: 11%
COCC(C)n1c(C)cc(C(=O)CSc2nnc(-c3ccco3)o2)c1C (stereo not drawn) | inconclusive [inhibitor, single point] | –
Cc1ccc2c(c1)[nH]c1c(N3CCN(Cc4ccccc4)CC3)ncnc12 | active: 5.8 µM | –
Cc1cccc(OCCNS(=O)(=O)c2ccc(Cl)cc2)c1 | inconclusive [inhibitor, partial curve] | –
CCCCn1c(-c2nonc2N)nc2ccccc21 | inconclusive [inhibitor, single point] | –
CCOC(=O)c1noc2ncnc(N3CCN(c4ccccc4OC)CC3)c12 | active: 4.61 µM | –
CCOCCCNC(=O)c1ccc2c(c1)N=C(CC)c1cc(Br)ccc1S2 | active: 0.0366 µM | –
CC(C)c1nc(SCC(=O)N2CCCCCC2)c2c(=O)n(C)c(=O)n(C)c2n1 | inconclusive [inhibitor, single point] | –
CC1Cc2ccccc2N1C(=O)CSc1nc2ccccc2s1 (stereo not drawn) | inconclusive [inhibitor, single point] | –
O=C(Cc1c(F)c(F)c(F)c(F)c1F)Nc1nc(-c2ccccc2)cs1 | inconclusive [inhibitor, single point] | –
CCOC(=O)NC(=O)c1cn(Nc2ccccc2C(F)(F)F)c(=O)[nH]c1=O | – | inactive: 6.96%
CC(=O)CSc1cc(C)nc2c(-c3ccccc3)c(C)nn12 | – | inactive: 12.6%
COCCN(C(=O)Cc1cccs1)C(C(=O)NCc1ccc(OC)cc1)c1ccccc1 (stereo not drawn) | inconclusive [inhibitor, single point] | –
COc1cc(SC)ccc1C(=O)N1CCN(Cc2ccccc2)CC1 | – | inactive: -17.5%
CC(=O)c1ccc(NC(=O)c2noc(C(C)C)c2[N+](=O)[O-])cc1 | – | inactive: -3.46%
CN(C)c1ccc(/C=C/c2ccc3c4ccccc4ccc3[n+]2-c2ccccc2)cc1 | active: 70.8 nM and active: 206 nM | –
COC(=O)CC(NC(=O)Nc1ccc(C)cc1)c1cccc([N+](=O)[O-])c1 (stereo not drawn) | – | inactive: 0.412%
CC(=O)c1sc(N/N=C\c2cccc(Br)c2)nc1C | inconclusive [inhibitor, single point] | –
CCN(Cc1ccncc1)Cc1ccc2c(c1)CN(C(=O)c1cccc3c(C)c(C)[nH]c13)CCO2 | – | inactive: -2.55%

Structure (SMILES) | Potency | activity change, negative = growth inhibition
c1coc(CNc2nc(N3CCCCC3)nc3ccccc23)c1 | active: 25.9 µM | –
Cc1ccc(-n2c(O)c(/C=N/n3cnnc3)c3ccccc3c2=O)cc1 | inactive | –
O=C(Nc1ccc(F)cc1F)c1ccc(CN2CC(=O)N3CCCCC3C2=O)cc1 (stereo not drawn) | – | inconclusive: -30.1% [inhibitor]
CCC1(C)N(O)C(C)(C)C(c2ccc(OC)cc2)=[N+]1[O-] (stereo not drawn) | – | inconclusive: -30.7% [inhibitor]
Cc1ccc2cc(CN(Cc3ccco3)C(=S)NCC3CCCO3)c(=O)[nH]c2c1 (stereo not drawn) | inconclusive [inhibitor, partial curve] | –
CC1CCN(c2c(NCc3ccc(C(=O)N4CCc5ccccc54)cc3)c(=O)c2=O)CC1 | active: 5.17 µM | –
CCc1nnc(NC(=O)C2CCN(c3ncnc4sc(C)c(C)c34)CC2)s1 | – | inactive: -21.1%
CC(=O)Nc1ccc(NC(=O)CCCSc2nc3ccccc3[nH]2)cc1 | – | inactive: 3.17%
CN(c1cccc(NC(=O)CN(c2ccc(C34CC5CC(CC(C5)C3)C4)cc2)S(C)(=O)=O)c1)S(C)(=O)=O | active: 18.4 µM | –
Fc1cccc(-n2ncc(-c3nnnn3-c3ccccc3)c2C(F)(F)F)c1 | – | inactive: -5.91%
O=[N+]([O-])c1ccccc1OCCCn1cnc2ccccc21 | inconclusive [inhibitor, single point] | –
COC(=O)C1CCN(S(=O)(=O)c2cc3c4c(c2)C(C)C(=O)N4CCC3)CC1 (stereo not drawn) | – | inactive: -12.4%
O=C(Nc1ccc2c(c1)[C@@H]1C[C@@H](CC(=O)N3CCOCC3)O[C@@H](CO)[C@@H]1O2)NC1CCCC1 | – | inactive: 4.65%
COc1ccc(N=C2S/C(=C\c3ccc(OC(C)C(=O)O)c(OC)c3)C(=O)N2CCc2c[nH]c3ccccc23)cc1 (stereo not drawn) | inconclusive [inhibitor, single point] | –
CCN(CC)S(=O)(=O)c1cc(C(=O)Oc2ccccc2OC)ccc1OC | – | inactive: -23.5%
CC1(C(=O)NS(=O)(=O)c2ccccc2C(F)(F)F)CCN1C(=O)CCc1ccccc1 (stereo not drawn) | – | inactive: 9.13%
COc1cc(C(c2sc3ncnn3c2O)N2CCN(c3ccccc3F)CC2)cc(OC)c1OC (stereo not drawn) | inconclusive [inhibitor, single point] | –
Cc1[nH]c2ccccc2c1C(c1ccncc1)N1CCN(c2ccccn2)CC1 (stereo not drawn) | inconclusive [inhibitor, partial curve, poor fit] | –
COc1ccc(C2CC(C)=C(C#N)S(=O)(=O)C2C#N)cc1 (stereo not drawn) | – | inactive: -0.563%
Cc1ccc(Cn2c(SCC(=O)NCc3ccc(Cl)cc3)nc3ccsc3c2=O)cc1 | inconclusive [inhibitor, single point] | –
CN(C)S(=O)(=O)c1cccc(C(=O)OCC(=O)N2CCCC2=O)c1 | – | inactive: -12.8%
COc1cc(C(=O)NNC(=S)NC(=O)c2ccccc2C)cc(OC)c1OC | active: 16.4 µM | –
CC(C)(C)c1cc(C(C)(C)C)c2oc(=O)c(-c3nc4ccccc4[nH]3)cc2c1 | active: 9.2 µM | –
CCOC(=O)c1c(NC(=O)CSc2nnc(-c3ccccc3)o2)sc(C(C)=O)c1C | active: 16.4 µM | –
CC1CN(CCC(=O)NC(c2cccnc2)C(F)(F)F)Cc2cc(Cl)ccc2O1 (stereo not drawn) | – | inactive: -12.8% [at 9.04 µM]

Structure (SMILES) | Potency | activity change, negative = growth inhibition
CC(=O)NC1C(=O)N(CCc2ccccc2)c2ccc(Br)cc21 (stereo not drawn) | inconclusive [inhibitor, single point] | –
CCOC(=O)N1CCN(c2ncnc3scc(-c4ccc(Cl)cc4)c23)CC1 | active: 18.4 µM | –
CCCCCCCCN1C(=O)[C@H](CC(=O)NCc2cccc3ccccc23)C[C@@]2(C(=O)OC)CCCCC=C12 | inconclusive [inhibitor, single point] | –
c1csc(CNc2ncnc3ccc(-c4ccc5c(c4)OCO5)cc23)c1 | inconclusive [inhibitor, partial curve, poor fit] | –
COc1ccc(/C=N/n2c(-c3cccs3)n[nH]c2=S)cc1 | inconclusive [inhibitor, single point] | –
C[C@H](CO)N1C[C@H](C)[C@@H](CN(C)S(=O)(=O)c2cccs2)Oc2c(NC(=O)Nc3ccc4c(c3)OCO4)cccc2C1=O | inconclusive [inhibitor, single point] | –
CCn1c(=O)c(C(=O)NNS(=O)(=O)c2ccc(Br)cc2)c(O)c2ccccc21 | inconclusive [inhibitor, single point] | –
CC(=O)Nc1ccc(NC(=O)C(C)OC(=O)CNS(=O)(=O)/C=C/c2ccc(C)cc2)cc1 (stereo not drawn) | – | inactive: -2.09%
COc1cccc(N2CCN(C(=O)C3CCC(CNS(=O)(=O)c4ccc(Br)s4)CC3)CC2)c1 (stereo not drawn) | active: 7.31 µM | –
COc1ccc(CNC(=O)CCNC(=O)N2CCn3c2nc2ccccc23)cc1 | inconclusive [inhibitor, single point] | –
CCCc1nc2ccccc2c(C(=O)OCC(=O)N2CCc3ccccc32)c1CC | active: 18.4 µM | –
O=C(O)/C=C/S(=O)(=O)c1ccc2ccccc2c1 | inconclusive [inhibitor, single point] | –
Cc1nnc(N/N=C/c2cccc(OCc3ccc(Cl)c(Cl)c3)c2)n1N | inconclusive [inhibitor, single point] | –
CC1(C(=O)NCc2ccc(Cl)cc2)CCN1C(=O)Cc1ccc(Cl)cc1Cl (stereo not drawn) | active: 18.4 µM | –
COc1ccc(OC)c(C(=O)c2ccc(C(=O)c3cc(OC)ccc3OC)cc2)c1 | inconclusive [inhibitor, single point] | –
Cc1ccc(-c2nc3ccccc3o2)cc1NC(=O)COc1ccccc1C | – | inactive: -8.14%
Cc1cc(C(=O)N/N=C/c2cc(Br)ccc2OC(=O)c2ccccc2)n[nH]1 | active: 7.31 µM | –
Nn1c(Cc2cccc3ccccc23)nnc1SCc1c(Cl)cccc1Cl | inconclusive [inhibitor, single point] | –
Clc1ccccc1OCCCCn1ccnc1 | inconclusive [inhibitor, full curve, poor fit] | –
Cc1ccc(C)c(C(=O)COC(=O)c2nn(C)c(=O)c3ccccc23)c1 | – | inactive: 2.15%
N#C/C(=C/c1ccc(OC(=O)c2ccc(Br)s2)cc1)c1nc2ccccc2[nH]1 | inconclusive [inhibitor, single point] | –
CCCC(=O)NC(C)c1nc2ccccc2n1C(C)C (stereo not drawn) | inconclusive [inhibitor, single point] | –
Nc1ncnc2c1ncn2[C@@H]1O[C@H](COP(=O)(O)OP(=O)(O)O)[C@@H](O)[C@H]1O | inactive | –

— PubChem BioAssay AID686979 (National Center for Advancing Translational Sciences (NCATS), 2013)
